Laboratory results reported in PubChem BioAssay AID342 (DTP/NCI, 2004).
A number of entries come with more than one value. The other results are left out here. There may be further records. Values that stand side by side are repeated measurements (runs, samples, wells, individuals or studies). Additions like (4×) give the number of equal values in this list.

Test system: Swiss mice, Sarcoma 180 sc, mean tumor weight T/C
Test: NCI In Vivo Anticancer Drug Screen. Data for tumor model Sarcoma 180 (subcutaneous) in Swiss mice
Conditions: endpoint: mean tumor weight, higher = larger tumour
Outline: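 Transplantable tumors were established in mice, compound was given, then survival or tumor size was recorded. The treated value was divided by the vehicle-control value.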

[1] = dose: 2.0 mg/kg/injection, schedule: Q01DX007 (ip), vehicle: carboxymethylcellulose (CMC)
[2] = dose: 110.0 mg/kg/injection, schedule: Q01DX007 (ip), vehicle: other
[3] = dose: 125.0 mg/kg/injection, schedule: Q#A X014 (ip), vehicle: methylcellulose (MC)

Structure (SMILES): C[C@]12CC[C@H](OC3OC(CO)C(O)C(O)C3O)C[C@H]1CC[C@@H]1[C@@H]2CC[C@]2(C)[C@@H](C3=CCOC3=O)CC[C@]12O (stereo not given in full)
- T/C (dose: 0.25 mg/kg/injection, schedule: Q01DX007 (ip), vehicle: carboxymethylcellulose (CMC)): 40 % of control and 86 % of control
- T/C (dose: 0.4 mg/kg/injection, schedule: Q01DX007 (ip), vehicle: saline): 45 % of control and 77 % of control
- T/C (dose: 0.5 mg/kg/injection, schedule: Q01DX007 (ip), vehicle: carboxymethylcellulose (CMC)): 36 % of control and 68 % of control
- T/C (dose: 0.75 mg/kg/injection, schedule: Q03DX003 (ip), vehicle: carboxymethylcellulose (CMC)): 47 % of control, 95 % of control, 100 % of control
- T/C (dose: 1.5 mg/kg/injection, schedule: Q03DX003 (ip), vehicle: carboxymethylcellulose (CMC)): 36 % of control, 62 % of control, 67 % of control
- T/C (dose: 3.0 mg/kg/injection, schedule: Q03DX003 (ip), vehicle: carboxymethylcellulose (CMC)): 62 % of control and 88 % of control
- T/C (dose: 30.0 micrograms/kg/injection, schedule: Q01DX007 (ip), vehicle: saline): 72 % of control and 112 % of control
- T/C (dose: 60.0 micrograms/kg/injection, schedule: Q01DX007 (ip), vehicle: saline): 71 % of control and 100 % of control
- T/C (dose: 480.0 micrograms/kg/injection, schedule: Q01DX007 (ip), vehicle: saline): 20 % of control, 47 % of control, 84 % of control
- T/C (dose: 1000.0 micrograms/kg/injection, schedule: Q01DX007 (ip), vehicle: carboxymethylcellulose (CMC)): 38 % of control and 68 % of control

Structure (SMILES): CN(C)c1ccc(C(C#N)C(C#N)c2ccccc2)cc1 (stereo not given)
- T/C (dose: 13.3 mg/kg/injection, schedule: Q#A X014 (ip), vehicle: methylcellulose (MC)): 53 % of control and 114 % of control
- T/C (dose: 20.0 mg/kg/injection, schedule: Q#A X014 (ip), vehicle: methylcellulose (MC)): 26 % of control and 90 % of control
- T/C (dose: 30.0 mg/kg/injection, schedule: Q#A X014 (ip), vehicle: methylcellulose (MC)): 29 % of control and 104 % of control

Structure (SMILES): CCCCCCCCCCCCCCCCCCNC(=S)N/N=C/c1ccc(Cl)cc1Cl
- T/C (dose: 97.5 mg/kg/injection, schedule: Q#A X014 (ip), vehicle: methylcellulose (MC)): 35 % of control and 91 % of control

Structure (SMILES): O=C1NC(=O)C2(CCCc3ccc(N(CCCl)CCCl)cc32)N1 (stereo not given)
- T/C (dose: 55.0 mg/kg/injection, schedule: Q01DX007 (ip), vehicle: other): 43 % of control, 48 % of control, 82 % of control
- T/C (dose: 83.0 mg/kg/injection, schedule: Q01DX007 (ip), vehicle: other): 29 % of control, 67 % of control, 92 % of control
- T/C (dose: 83.0 mg/kg/injection, schedule: Q01DX007 (ip), vehicle: saline): 28 % of control and 62 % of control
- T/C (dose: 125.0 mg/kg/injection, schedule: Q01DX007 (ip), vehicle: other): 32 % of control and 64 % of control

Structure (SMILES): O=C(O)c1ccc(N=NSc2ncnc3nc[nH]c23)cc1O
- T/C [1]: 28 % of control, 33 % of control, 88 % of control
- T/C (dose: 4.0 mg/kg/injection, schedule: Q01DX007 (ip), vehicle: carboxymethylcellulose (CMC)): 12 % of control and 43 % of control

Structure (SMILES): Clc1ccc2c(c1)Cc1cc(N=Cc3ccccc3Cl)ccc1-2
- T/C (dose: 96.0 mg/kg/injection, schedule: Q01DX007 (ip), vehicle: other): 51 % of control and 95 % of control
- T/C (dose: 144.0 mg/kg/injection, schedule: Q01DX007 (ip), vehicle: other): 42 % of control and 99 % of control

Structure (SMILES): Brc1ccc(-c2csc(Nc3nc(-c4ccc(Br)cc4)cs3)n2)cc1
- T/C (dose: 450.0 mg/kg/injection, schedule: Q01DX007 (ip), vehicle: carboxymethylcellulose (CMC)): 15 % of control and 51 % of control

Structure (SMILES): COC(=O)CC(C(=O)C=[N+]=[N-])N1C(=O)c2ccccc2C1=O (stereo not given)
- T/C (dose: 1.6 mg/kg/injection, schedule: Q01DX007 (ip), vehicle: carboxymethylcellulose (CMC)): 59 % of control and 90 % of control

Structure (SMILES): CC(=O)[C@@]1(O)CC[C@H]2[C@@H]3C[C@H](C)C4=CC(=O)C=C[C@]4(C)[C@@]3(F)[C@@H](O)C[C@@]21C
- T/C (dose: 55.0 mg/kg/injection, schedule: Q01DX007 (sc), vehicle: steriod suspending solution): 43 % of control and 71 % of control
- T/C (dose: 93.75 mg/kg/injection, schedule: Q#A X014 (sc), vehicle: steriod suspending solution): 36 % of control and 68 % of control
- T/C (dose: 200.0 mg/kg/injection, schedule: Q01DX007 (sc), vehicle: steriod suspending solution): 17 % of control and 61 % of control

Structure (SMILES): CNC(C)=O
- T/C (dose: 1000.0 mg/kg/injection, schedule: Q01DX007 (ip), vehicle: carboxymethylcellulose (CMC)): 36 % of control and 73 % of control

Structure (SMILES): OC(CBr)C(O)C(O)C(O)CBr (stereo not given)
- T/C (dose: 200.0 mg/kg/injection, schedule: Q01DX007 (ip), vehicle: saline): 59 % of control and 86 % of control

Structure (SMILES): ClCc1c2ccccc2c(CCl)c2ccccc12
- T/C (dose: 4.0 mg/kg/injection, schedule: Q01DX007 (ip), vehicle: saline): 44 % of control and 103 % of control
- T/C (dose: 6.0 mg/kg/injection, schedule: Q01DX007 (ip), vehicle: saline): 52 % of control and 109 % of control

Structure (SMILES): O=C(c1ccccc1)C(C(=O)c1ccccc1)C(=O)c1ccccc1.O=C(c1ccccc1)C(C(=O)c1ccccc1)C(=O)c1ccccc1.[Cu]
- T/C (dose: 125.0 mg/kg/injection, schedule: Q01DX007 (ip), vehicle: carboxymethylcellulose (CMC)): 39 % of control, 80 % of control, 107 % of control

Structure (SMILES): CC(C)(S)C(N)C(=O)O (stereo not given)
- T/C (dose: 250.0 mg/kg/injection, schedule: Q01DX007 (oral), vehicle: saline): 122 % of control and 159 % of control

Structure (SMILES): C=CCSc1ncnc2c1ncn2C1OC(CO)C(O)C1O (stereo not given)
- T/C (dose: 50.0 mg/kg/injection, schedule: Q01DX007 (ip), vehicle: saline): 51 % of control and 86 % of control

Structure (SMILES): COC12C(COC(N)=O)C3=C(C(=O)C(C)=C(N)C3=O)N1CC1C2N1C (stereo not given)
- T/C (dose: 2.5 mg/kg/injection, schedule: Q#A X014 (ip), vehicle: carboxymethylcellulose (CMC)): 42 % of control and 93 % of control

Structure (SMILES): CN(Cc1cnc2nc(N)nc(N)c2n1)c1ccc(C(=O)N[C@@H](CCC(=O)O)C(=O)O)cc1
- T/C (dose: 0.5 mg/kg/injection, schedule: Q01DX007 (ip), vehicle: water): 19 % of control, 21 % of control, 46 % of control
- T/C [1]: 43 % of control and 93 % of control

Structure (SMILES): COCCOC1=C(N2CC2)C(=O)C(OCCOC)=C(N2CC2)C1=O
- T/C (dose: 4.0 mg/kg/injection, schedule: Q01DX001 (ip), vehicle: saline): 43 % of control and 73 % of control
- T/C (dose: 8.0 mg/kg/injection, schedule: Q01DX001 (ip), vehicle: saline): 7 % of control and 71 % of control

Structure (SMILES): O=C(N[C@H](CO)[C@H](O)c1ccc([N+](=O)[O-])cc1)C(Cl)Cl
- T/C (dose: 500.0 mg/kg/injection, schedule: Q01DX007 (ip), vehicle: carboxymethylcellulose (CMC)): 78 % of control and 111 % of control (2×)

Structure (SMILES): C=CCCCCCCCCC(=O)O
- T/C (dose: 62.5 mg/kg/injection, schedule: Q01DX007 (ip), vehicle: saline): 79 % of control and 120 % of control

Structure (SMILES): CN(C)c1ccc2c(c1)Cc1cc(N=C3C=CC(=O)O3)ccc1-2
- T/C [2]: 42 % of control and 68 % of control

Structure (SMILES): CCSc1nc(Cl)cc(Sc2nc(N)nc3nc[nH]c23)n1
- T/C (dose: 36.0 mg/kg/injection, schedule: Q01DX007 (ip), vehicle: other): 35 % of control and 75 % of control

Structure (SMILES): CC(=O)OCC(=O)[C@@]1(O)CC[C@H]2[C@@H]3C[C@H](C)C4=CC(=O)C=C[C@]4(C)[C@H]3[C@@H](O)C[C@@]21C
- T/C (dose: 5.0 mg/kg/injection, schedule: Q01DX007 (sc), vehicle: steriod suspending solution): 73 % of control and 118 % of control
- T/C (dose: 17.0 mg/kg/injection, schedule: Q01DX007 (sc), vehicle: steriod suspending solution): 35 % of control and 95 % of control

Structure (SMILES): CC1CN1P(=O)(Oc1ccccc1)N1CC1C (stereo not given)
- T/C (dose: 41.5 mg/kg/injection, schedule: Q#A X014 (ip), vehicle: saline): 29 % of control, 48 % of control, 60 % of control

Structure (SMILES): CC(=O)Nc1cc2c(cc1Br)-c1ccccc1C2O (stereo not given)
- T/C (dose: 85.0 mg/kg/injection, schedule: Q01DX007 (ip), vehicle: saline): 61 % of control and 104 % of control
- T/C [2]: 48 % of control and 101 % of control
- T/C (dose: 166.0 mg/kg/injection, schedule: Q01DX007 (ip), vehicle: other): 21 % of control and 50 % of control

Structure (SMILES): C[C@]12C=CC(=O)C=C1CC[C@@H]1[C@@H]2[C@@H](O)C[C@@]2(C)[C@H]1CC[C@]2(O)C(=O)CF
- T/C (dose: 30.0 mg/kg/injection, schedule: Q01DX007 (sc), vehicle: steriod suspending solution): 40 % of control, 49 % of control, 81 % of control

Structure (SMILES): Cc1cc(C)c(N)c(C)c1N
- T/C (dose: 55.5 mg/kg/injection, schedule: Q#A X014 (ip), vehicle: methylcellulose (MC)): 44 % of control, 66 % of control, 104 % of control
- T/C (dose: 83.0 mg/kg/injection, schedule: Q#A X014 (ip), vehicle: methylcellulose (MC)): 62 % of control, 77 % of control, 88 % of control
- T/C [3]: 22 % of control, 57 % of control, 110 % of control

Structure (SMILES): Cc1nc(C(N)=O)nc2ccccc12
- T/C (dose: 31.25 mg/kg/injection, schedule: Q#A X014 (ip), vehicle: methylcellulose (MC)): 65 % of control and 94 % of control
- T/C [3]: 40 % of control and 74 % of control
